Laboratory results reported in PubChem BioAssay AID504339 (National Center for Advancing Translational Sciences (NCATS), 2011).
Among all 390,000 compounds or so, about 17,000 (4.4%) were called active. This list was built around the results that the source calls inconclusive (neither active nor inactive); the mix of calls is not that of the screen. The call rests on the fitted dose curve; in most records, active means well fitted inhibition curve with a large enough effect; inconclusive means small, poorly fitted or top-dose-only effect; inactive means no such curve, though single readings can be large or run the other way. Where the call is inconclusive, the potency comes from a doubtful curve fit.

Target: Lysine-specific demethylase 4A (Homo sapiens) (UniProt O75164)
Test: qHTS Assay for Inhibitors of JMJD2A-Tudor Domain; further: nearly all actives have a fitted effect of over 50% in size
Settings: AlphaScreen JMJD2A-Tudor / H3K4me3 peptide binding; series mostly up to 114 µM
Potency means the concentration at half of the fitted maximal effect; tags describe the fitted curve by direction and shape.

UniProt O75164, sequence (O75164 whole entry, looked up, the tested form may be a part): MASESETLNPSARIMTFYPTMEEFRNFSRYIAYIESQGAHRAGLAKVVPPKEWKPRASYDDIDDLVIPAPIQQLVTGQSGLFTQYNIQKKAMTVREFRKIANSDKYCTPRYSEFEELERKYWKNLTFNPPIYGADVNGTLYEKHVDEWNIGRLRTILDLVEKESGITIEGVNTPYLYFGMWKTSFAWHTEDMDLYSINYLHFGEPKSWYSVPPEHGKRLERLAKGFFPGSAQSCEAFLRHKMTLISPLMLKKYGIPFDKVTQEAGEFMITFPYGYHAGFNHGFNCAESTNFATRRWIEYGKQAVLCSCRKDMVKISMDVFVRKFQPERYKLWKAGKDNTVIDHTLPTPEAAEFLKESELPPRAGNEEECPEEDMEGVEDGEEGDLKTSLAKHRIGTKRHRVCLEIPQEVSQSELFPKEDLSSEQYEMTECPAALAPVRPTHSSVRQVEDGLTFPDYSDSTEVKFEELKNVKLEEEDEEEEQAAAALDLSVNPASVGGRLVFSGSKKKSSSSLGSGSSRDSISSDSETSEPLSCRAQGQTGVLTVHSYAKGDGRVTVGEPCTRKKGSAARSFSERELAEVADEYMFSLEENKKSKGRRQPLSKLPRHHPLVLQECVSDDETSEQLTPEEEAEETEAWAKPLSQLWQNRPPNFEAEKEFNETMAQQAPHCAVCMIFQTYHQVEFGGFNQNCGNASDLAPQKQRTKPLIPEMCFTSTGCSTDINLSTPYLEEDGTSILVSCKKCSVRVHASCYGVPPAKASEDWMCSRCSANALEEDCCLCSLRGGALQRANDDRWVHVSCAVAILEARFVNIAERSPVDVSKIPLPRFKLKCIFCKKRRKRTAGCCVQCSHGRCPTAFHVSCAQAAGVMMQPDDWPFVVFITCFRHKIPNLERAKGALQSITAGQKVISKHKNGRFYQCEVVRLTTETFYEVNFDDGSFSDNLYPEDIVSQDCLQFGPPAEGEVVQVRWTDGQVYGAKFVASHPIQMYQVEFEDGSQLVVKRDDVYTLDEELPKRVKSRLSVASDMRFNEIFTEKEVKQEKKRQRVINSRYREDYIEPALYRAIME

Structure (SMILES)	Potency
CCOC(=O)c1nn(-c2ccc(C)cc2)c(=O)c2c(N)scc12	inconclusive: 56.2 µM [inhibitor, partial curve]
O=C(c1ccccc1)N1CCN(c2ccc([N+](=O)[O-])cc2-n2cccc2)CC1	inconclusive: 20 µM [inhibitor, full curve]
CN=c1sc2c(n1C)C(=O)c1ccccc1C2=O	inconclusive: 11.2 µM [inhibitor, full curve]
COc1ccc(CC(=O)NCc2ccc3c(c2)CCN3C(=O)c2ccccc2)cc1OC	inactive
CCOC(=O)c1c(O)c2ccccc2n(CC)c1=O	inconclusive: 100 µM [inhibitor, single point]
COc1ccc(C2=NC(c3ccncc3)=Nc3ccc(Br)cc3N2)cc1	active: 44.7 µM
CC(CNC(=O)c1ccc(Br)o1)NC(=O)c1ccc(Br)o1 (centres undefined)	inconclusive: 3.55 µM [inhibitor, single point]
Cc1cc(-c2ccc(S(=O)(=O)N3CCN(c4cccc(C)c4C)CC3)s2)on1	inactive
CN(C)c1ccc(-n2c(CCC(=O)O)ccc2-c2ccccc2)cc1	active: 50.1 µM
CC[C@@H](C)[C@@H](C(=O)N1CCN(C(=O)OC(C)(C)C)CC1)n1cc(CCCN=C(NC(=O)OC(C)(C)C)NC(=O)OC(C)(C)C)nn1	inconclusive: 50.1 µM [inhibitor, partial curve]
O=[N+]([O-])c1ccc(/C=N/NC(=S)Nc2ccc(Cl)cc2Cl)s1	inconclusive: 56.2 µM [inhibitor, partial curve, poor fit]
Brc1ccc(CN2CCN(Cc3c[nH]c4ccccc34)CC2)cc1	active: 2.24 µM
CCOC(=O)c1c(N)sc(-c2ccccc2)c1C	inconclusive: 56.2 µM [inhibitor, partial curve]
O=C(Nc1nccs1)c1cccnc1	inconclusive: 25.1 µM [inhibitor, single point]
Nc1ccc(N2CCCCC2)c2nonc12	active: 56.2 µM
COC(=O)c1ccc(NC(=O)CC(=O)Nc2ccc(C(=O)OC)cc2)cc1	inconclusive: 2.24 µM [inhibitor, partial curve, poor fit]
C[C@@H](CN1C2=NC[C@H](C)N2C[C@H]1Cc1ccc(O)cc1)NC(=O)CCC1CCCCC1	inactive
Cc1oc(-c2cccc(Cl)c2)nc1CN1CCC(C(=O)NCCCN2CCN(c3ccc(F)cc3)CC2)CC1	inactive
O=C(NOCc1ccccc1)c1coc(-c2ccccc2)n1	inactive
Cn1c(=O)c2c(nc(CN3CCN(Cc4ccccc4)CC3)n2Cc2ccc(Cl)cc2)n(C)c1=O	inconclusive: 44.7 µM [inhibitor, full curve, poor fit]
COc1cc(C(c2c(C)[nH][nH]c2=O)c2c(C)[nH][nH]c2=O)ccc1OC(=O)c1cccc(C)c1	inconclusive: 56.2 µM [inhibitor, partial curve]
CCCC1C(C#N)=C(N)Oc2n[nH]c(C(C)(C)C)c21 (centres undefined)	inconclusive: 25.1 µM [inhibitor, single point]

Structure (SMILES)	Potency
O=C(O)CC(SCc1ccc(C(=O)O)o1)C(=O)O (centres undefined)	inconclusive: 79.4 µM [inhibitor, single point]
CCCCNC1=CC(=O)C(=O)c2ccccc21	inactive
Cc1cccc(-n2ccnc2SCC(=O)Nc2ccc3c(c2)OCCO3)c1	inconclusive: 56.2 µM [inhibitor, partial curve]
Cc1ccc(S(=O)(=O)Cc2ccc(C(=O)N3CCc4ccccc4C3)o2)cc1	active: 56.2 µM
COc1ccccc1N1CCN(C(=O)c2ccc3[nH]c(C)c(C)c3c2)CC1	inconclusive: 44.7 µM [inhibitor, partial curve]
C=CCN1c2ccccc2[C@]23C[C@@H](C(=O)OC)N(C(=O)c4cc(C)oc4C)C2=NC(C(=O)OC)=C(C(=O)OC)[C@H]13	inconclusive: 39.8 µM [inhibitor, partial curve]
CC1CCCN(CCOCCOc2ccc(Br)cc2Cl)C1 (centres undefined)	active: 2.82 µM
CCN(CC)CCN(Cc1cc2cc(C)ccc2[nH]c1=O)C(=S)NCc1ccco1	inconclusive: 31.6 µM [inhibitor, single point]
COc1ccc(CCC(=O)NCc2ccco2)cc1	inconclusive: 79.4 µM [inhibitor, single point]
COc1ccc(CSCCc2n[nH]c(=S)n2-c2ccccc2)cc1	active: 50.1 µM
CCCSc1nnc2c(n1)OC(c1sccc1C)Nc1ccccc1-2 (centres undefined)	inconclusive: 63.1 µM [inhibitor, partial curve, poor fit]
CCc1cccc(NC(=O)c2cc3c(=O)n(Cc4ccc(OC)cc4)ccc3nc2C)c1	inactive
COc1ccc(C(=O)CSc2nnc(-c3cnccn3)n2Cc2ccco2)cc1	inconclusive: 31.6 µM [inhibitor, full curve]
Cc1nc(NC(=O)c2ccc([N+](=O)[O-])cc2Cl)sc1C(=O)N(C)C	inconclusive: 70.8 µM [inhibitor, single point]
COc1cccc(NC(=O)C(c2ccccc2)N2CCCC2)c1 (centres undefined)	inconclusive: 35.5 µM [inhibitor, partial curve]
Cc1nc2ccccn2c1/C(O)=C1\C(=O)C(=O)N(CCN2CCOCC2)C1c1cccs1 (centres undefined)	inconclusive: 89.1 µM [inhibitor, partial curve]
CCc1cc(C(=O)Nc2cc(Cl)ccc2N2CCN(C)CC2)sc1C	inactive
CCOC(=O)c1c(NC(=O)c2cc3nc(-c4ccc(OC)cc4)cc(C(F)(F)F)n3n2)sc2c1CCC(C)C2 (centres undefined)	inactive
CCc1cccc(NC(=O)C(Cc2ccccc2)NS(=O)(=O)c2ccc3c(c2)oc(=O)n3C)c1 (centres undefined)	inactive
COC(=O)[C@@]1(Cc2ccc(F)cc2)[C@H]2c3cc(C(=O)N(C)C)n(Cc4ccccc4)c3C[C@H]2CN1C(=O)c1ccccc1	inconclusive: 63.1 µM [inhibitor, partial curve]
CC(C)N(Cc1nc(-c2ccc3c(c2)OCO3)no1)Cc1nccn1C	inactive
COc1cc(C2C=C(c3cccs3)Nc3ncnn32)cc(OC)c1OC (centres undefined)	inconclusive: 35.5 µM [inhibitor, partial curve]
